Entries after “also recorded” stand apart in the source; their conditions may differ.
How the values were obtained:
MONOMAC-1 cells = assay: FACS binding to cell lines; design: species or system human; conditions: MONOMAC-1 (AML); antibody 10 ug/ml
Protocol: (§1) CHv62.21 was tested for binding to AML and B-ALL cell lines grown in vitro. (See, FIG. 15A-M). Briefly, CHv62.21 and an isotype matched control antibody were biotinylated using NHS LC biotin. In vitro, exponentially grown cancer cell lines were used for all experiments. Cells were harvested by and washed by centrifugation. Cells were Fc blocked to reduce non-specific binding. Antibodies were diluted to 10 ug/ml final concentration and co-incubated with cells at 4° C. for 1 hour. At the end of the incubation, cells were washed and incubated with secondary detection Streptavidin-PE antibody at a final 1:200 (2.5 ug/ml) dilution for 1 hour at 4° C. After washing un-bound secondary antibody, cells were analyzed by FACS and geometric mean fluorescence was determined and reported. Fluorescence ratio was calculated as follows: Geo mean cHv62.21/Geo mean isotype control=MFR, a measure of fold expression above isotype control.

THP-1 cells = assay: FACS binding to cell lines; design: species or system human; conditions: THP-1 (AML); antibody 10 ug/ml
Protocol: as §1

RS4; 11 cells = assay: FACS binding to cell lines; design: species or system human; conditions: 11 (B-ALL), antibody 10 ug/ml
Protocol: as §1

MV-4-11 cells = assay: FACS binding to cell lines; design: species or system human; conditions: MV-4-11 (AML); antibody 10 ug/ml
Protocol: as §1

NALM-1 cells = assay: FACS binding to cell lines; design: species or system human; conditions: NALM-1 (CML); antibody 10 ug/ml
Protocol: as §1

Karpas-299 cells = assay: FACS binding to cell lines; design: species or system human; conditions: Karpas-299 (ALCL)
Protocol: as §1

SKM-1 cells = assay: FACS binding to cell lines; design: species or system human; conditions: SKM-1 (AML); antibody 10 ug/ml
Protocol: as §1

EOL-1 cells = assay: FACS binding to cell lines; design: species or system human; conditions: EOL-1 (AML); antibody 10 ug/ml
Protocol: as §1

REH cells = assay: FACS binding to cell lines; design: species or system human; conditions: REH (ALL); antibody 10 ug/ml
Protocol: as §1

PL-21 cells = assay: FACS binding to cell lines; design: species or system human; conditions: PL-21 (AML); antibody 10 ug/ml
Protocol: as §1

OCI-AML2 cells = assay: FACS binding to cell lines; design: species or system human; conditions: OCI-AML2 (AML); antibody 10 ug/ml
Protocol: as §1

SEM cells = assay: FACS binding to cell lines; design: species or system human; conditions: SEM (B-ALL); antibody 10 ug/ml
Protocol: as §1

MOLM-13 cells = assay: FACS binding to cell lines; design: species or system human; conditions: MOLM-13 (AML); antibody 10 ug/ml
Protocol: as §1

cell surface FLT3 = cell surface FLT3 (Homo sapiens, UniProt P36888); assay: Binding to cell surface FLT3 by flow cytometry
Excerpt: To express CHv62.21 MAb recombinantly in transfected cells, v62.21 hybridoma MAb variable heavy and light chain sequences were cloned upstream of the human heavy chain IgG1 and human light chain Igκ constant regions respectively. The complete CHv62.21 MAb human heavy chain and light chain cassettes were cloned downstream of the CMV promoter/enhancer in a cloning vector. The recombinant CHv62.21 MAb expressing construct was transfected into CHO cells for stable expression in the Lonza GS system (Lonza, Basel, Switzerland). The CHv62.21 MAb secreted from recombinant CHO cells was purified and evaluated for binding to cell surface FLT3 by flow cytometry.
To express CHv62.21pAF recombinantly in transfected cells, v62-1b21 hybridoma MAb variable heavy and light chain sequences were cloned upstream of the human heavy chain IgG1 and human light chain Igκ constant regions respectively. The complete CHv62.21 MAb human heavy chain and light chain cassettes were cloned downstream of the CMV promoter/enhancer in a cloning vector. […] The CHv62.21pAF secreted from the stable subclone was purified and evaluated for binding to cell surface FLT3 by flow cytometry.

[1] = biological target: T1, Recombinant human FLT3-Fc / biotinylated FLT3 ligand (Homo sapiens, UniProt P36888); assay: Luminex FLT3 ligand blocking assay; assay type: binding; conditions: biotinylated FLT3 ligand 5 ng/mL; antibody 10 μg/mL; 60 minutes
T1 construct: purchased R and D Systems
Excerpt: In one experiment, the CHv62.21 MAb of the invention was confirmed to not block FL. Briefly, Recombinant human FLT3-Fc was purchased from R and D Systems. This protein was immobilized onto the surface of activated Luminex microspheres using standard sulfo-NHS/EDC chemistry according to the procedure provided by Luminex. A His-tagged version of the protein, along with several other proteins were conjugated to Luminex microspheres, and served as controls in this procedure.
In addition, FLT3 ligand was also purchased from R and D Systems. The ligand was biotinylated using Thermo Scientific EZ-Link Sulfo-NHS-LC-Biotin, No-Weigh Formula according to the manufacturer's recommendations. After two (2) hours of reacting the protein with Sulfo-NHS-LC-Biotin, unincorporated biotin was removed by dialysis against DPBS.
The ability of FLT3 immobilized onto the surface of the microspheres to bind to its biotinylated ligand was assessed by reacting the microspheres with various concentrations of biotinylated ligand, prepared in buffer containing PBS, 2% BSA, 0.05% Tween 20, and 0.1% sodium azide, for 120 minutes at RT with gentle shaking. At the end of the incubation, the microspheres were aspirated and washed. Biotinylated FLT3 ligand bound to its immobilized receptor was detected with Streptavidin-R-Phycoerythrin (Moss, Inc.). The fluorescence associated with the microspheres was measured with the Luminex instrument.
Finally, to assess the ability of the FLT3 antibodies to potentially block ligand, mixtures were prepared containing biotinylated FLT3 ligand at 5 ng/mL, plus the various antibodies under investigation at 10 μg/mL. These mixtures were applied to the FLT3 immobilized onto the microspheres and incubated for 60 minutes. […] Biotinylated FLT3 ligand bound to its immobilized receptor was detected with Streptavidin-R-Phycoerythrin (Moss, Inc.). The fluorescence associated with the microspheres was measured with the Luminex instrument. Antibodies with the capability to block ligand were observed by reduction in MFI (median fluorescence intensity).

B1: CHv62.21: FLT3 MAb, human IgG1/kappa, heavy chain SEQ ID NO: 9, light chain SEQ ID NO: 10, CHO cell ATCC PTA-121831 (antibody, listed as Homo sapiens)
heavy: EVQLVESGGGLVRPGGSLRLSCAASGFTFSGYSINWVRQAPGKGLEWVSSISSSSNYIYYADSVKGRFTISRDNAKNSLYLQMNSLRAEDTAVYYCAREGFIAGTTFDAFDIWGQGTMVTVSS[skipping human IgG1 constant region]
light: DIQMTQSPSSLSASVGDRVTITCRASQGIRNDLGWYQQKPGKAPKRLIYAASSLQSGVPSRFSGSGSGTEFTLTISSLQPEDFATYYCLQHNGFPYTFGQGTKLEIKRTVAAPSVFIFPPSDEQLKSGTASVVCLLNNFYPREAKVQWKVDNALQSGNSQESVTEQDSKDSTYSLSSTLTLSKADYEKHKVYACEVTHQGLSSPVTKSFNRGEC
modifications: CHv62.21 heavy chain; CHv62.21 light chain
Geometric Mean (FACS) (MONOMAC-1 cells): 11400 | Geometric Mean (FACS) (THP-1 cells): 19700 | Geometric Mean (FACS) (RS4; 11 cells): 18400 | Geometric Mean (FACS) (MV-4-11 cells): 2875 | Geometric Mean (FACS) (NALM-1 cells): 12900 | MFR (Geo mean cHv62.21/Geo mean isotype control) (Karpas-299 cells): 1 | Geometric Mean (FACS) (Karpas-299 cells; antibody 10 ug/ml, 4° C. 1 hour): 634 | Geometric Mean (FACS) (SKM-1 cells): 3208 | Geometric Mean (FACS) (EOL-1 cells): 14000 | Geometric Mean (FACS) (REH cells): 16200 | Geometric Mean (FACS) (PL-21 cells): 3715 | Geometric Mean (FACS) (OCI-AML2 cells): 5646 | Geometric Mean (FACS) (SEM cells): 132000 | Geometric Mean (FACS) (MOLM-13 cells): 14000 | binding to cell surface FLT3 (cell surface FLT3): binds to FLT3 on the cell surface; also recorded: binds FLT3 similarly to the v62.21 purified from hybridoma | blocking of FLT3 ligand binding to FLT3 [1]: non ligand blocker; also recorded: non FL blocker

— patent US9974865B2, “Antibody drug conjugates (ADC) that bind to FLT3 proteins” (AGENSYS, INC., priority 2015, dated 2018)
